# From ChEMBL document CHEMBL5606458, “ASAP - ZIKV NS2B-NS3 protease fluorescence single point” (2024)
# The campaign covered roughly 2,700 compounds. About 160 (5.9%) showed an effect of 50% or more. The list shows a part of the results.
# Target: Nonstructural protein 3 (Zika virus) (UniProt A0A024AXB9)
# [1] = PRVABC59, Concentration 15.0 uM, Number of replicates 1.0
# [2] = PRVABC59, Concentration 50.0 uM, Number of replicates 1.0
# [3] = PRVABC59, Concentration 10.0 uM, Number of replicates 1.0
# Chain of UniProt A0A024AXB9 (A0A024AXB9 as listed by the source): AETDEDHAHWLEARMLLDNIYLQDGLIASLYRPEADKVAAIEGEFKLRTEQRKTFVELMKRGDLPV
structure (smiles),measurement,setting,value
O=C(N[C@@H](Cc1ncc[nH]1)c1ccccc1)c1ccc2c(c1)B(O)OC2,inhibition,"PRVABC59, Concentration 49.5 uM, Number of replicates 2.0, Standard deviation 0.6415056750946746 %",-1.31%
same,inhibition,"PRVABC59, Concentration 99.01 uM, Number of replicates 2.0, Standard deviation 0.7886024964496671 %",-0.838%
same,inhibition,"PRVABC59, Concentration 198.0 uM, Number of replicates 2.0, Standard deviation 0.8805381125294807 %",1.82%
CCN1CCOC[C@H]1C(=O)Nc1cc(Cl)cc(C(=O)NC(C)(C)CO)c1,inhibition,"PRVABC59, Concentration 49.5 uM, Number of replicates 2.0, Standard deviation 1.425535849610213 %",-1.8%
same,inhibition,"PRVABC59, Concentration 99.01 uM, Number of replicates 2.0, Standard deviation 1.345541763339264 %",-2.76%
same,inhibition,"PRVABC59, Concentration 198.0 uM, Number of replicates 2.0, Standard deviation 3.0049064318797343 %",-3.73%
O=C1CC2(CCN(C(=O)c3cc(Cl)ccc3NS(=O)(=O)c3ccc(Oc4ccccc4Cl)cc3)CC2)Oc2ccccc21,inhibition,[1],8.92%
CN1CCN(C(=O)C2CCN(C(=O)C3CCN(c4ccc(C=O)cc4)CC3)CC2)CC1,inhibition,[2],21.1%
CN1CCN2CCN(C(=O)c3cc(Cl)ccc3NS(=O)(=O)c3ccc(Oc4ccccc4Cl)cc3)C[C@H]2C1,inhibition,[1],11.4%
Cc1ccc2nc(NC(=O)c3cc(Cl)ccc3NS(=O)(=O)c3ccc(Oc4ccccc4Cl)cc3)sc2c1,inhibition,[1],24.8%
Cc1cc(I)ccc1NC(=O)c1cc(Cl)ccc1NS(=O)(=O)c1ccc(Oc2ccccc2Cl)cc1,inhibition,[1],20.7%
CC(C)(CO)NC(=O)c1cc(Cl)cc(NC(=O)c2cncc(N3CCOCC3)c2)c1,inhibition,"PRVABC59, Concentration 49.5 uM, Number of replicates 2.0, Standard deviation 1.0632470189008745 %",1.43%
same,inhibition,"PRVABC59, Concentration 99.01 uM, Number of replicates 2.0, Standard deviation 2.7807996686423335 %",5.47%
same,inhibition,"PRVABC59, Concentration 198.0 uM, Number of replicates 2.0, Standard deviation 2.856881979462441 %",10.3%
Cc1cc(CO)c2cccc(NC(=O)c3cc(C(=O)O)[nH]n3)c2n1,inhibition,"PRVABC59, Concentration 49.95 uM, Number of replicates 2.0, Standard deviation 8.576009209154032 %",-3.08%
same,inhibition,"PRVABC59, Concentration 99.9 uM, Number of replicates 2.0, Standard deviation 1.7362781995069096 %",11.3%
Cc1cc(CO)c2cccc(NC(=O)c3cnn(Cc4c(C)noc4C)c3)c2n1,inhibition,"PRVABC59, Concentration 49.95 uM, Number of replicates 2.0, Standard deviation 2.012275994043529 %",-0.018%
same,inhibition,"PRVABC59, Concentration 99.9 uM, Number of replicates 2.0, Standard deviation 1.7312603643105966 %",9.24%
COc1cc(CS(=O)(=O)[C@H]2CCOC2)nc(N2CCNCC2)n1,inhibition,"PRVABC59, Concentration 49.5 uM, Number of replicates 2.0, Standard deviation 1.5958215087676872 %",1.88%
same,inhibition,"PRVABC59, Concentration 99.01 uM, Number of replicates 2.0, Standard deviation 0.03613889954936311 %",2.15%
same,inhibition,"PRVABC59, Concentration 198.0 uM, Number of replicates 2.0, Standard deviation 0.22444208356415332 %",4.22%
CC1(C)CCC(CN2CCN(C(=O)C3CCN(c4ccc(C=O)cc4)CC3)CC2)=C(c2ccc(Cl)cc2)C1,inhibition,[2],25.8%
CS(=O)(=O)N1CCC(C(=O)Nc2nc3c(F)cccc3s2)CC1,inhibition,"PRVABC59, Concentration 49.5 uM, Number of replicates 2.0, Standard deviation 3.126747618274968 %",2.65%
same,inhibition,"PRVABC59, Concentration 99.01 uM, Number of replicates 2.0, Standard deviation 1.0594119507143227 %",2.8%
same,inhibition,"PRVABC59, Concentration 198.0 uM, Number of replicates 2.0, Standard deviation 0.41034660613649154 %",3.1%
O=C(NC(c1ccccc1)c1ccccc1)c1cc(Cl)ccc1NS(=O)(=O)c1ccc(Oc2ccccc2Cl)cc1,inhibition,[1],55%
O=C(c1cc(Cl)ccc1NS(=O)(=O)c1ccc(Oc2ccccc2Cl)cc1)N1CCN(c2ccc(O)cc2)CC1,inhibition,[1],34%
CC(C)C(=O)N1CCN(C(=O)c2cc(Cl)ccc2NS(=O)(=O)c2ccc(Oc3ccccc3Cl)cc2)CC1,inhibition,[1],2.52%
Nc1ccc(Br)c2ncccc12,inhibition,"PRVABC59, Concentration 49.95 uM, Number of replicates 2.0, Standard deviation 11.698119789008983 %",0.823%
same,inhibition,"PRVABC59, Concentration 99.9 uM, Number of replicates 2.0, Standard deviation 11.331169601148035 %",6.58%
CSCC[C@H](NC(=O)OC(C)(C)C)C(=O)N1CCC[C@H]1C(=O)NCc1ccncc1,inhibition,"PRVABC59, Concentration 49.5 uM, Number of replicates 2.0, Standard deviation 0.6637967639504498 %",-0.231%
same,inhibition,"PRVABC59, Concentration 99.01 uM, Number of replicates 2.0, Standard deviation 3.044759606747817 %",-1.27%
same,inhibition,"PRVABC59, Concentration 198.0 uM, Number of replicates 2.0, Standard deviation 2.9620569954041636 %",-0.452%
CC(C)(CO)NC(=O)c1cc(Cl)cc(NC(=O)c2cc(-c3ccc(Cl)cc3)n[nH]2)c1,inhibition,"PRVABC59, Concentration 49.5 uM, Number of replicates 2.0, Standard deviation 0.03613898384306013 %",1.66%
same,inhibition,"PRVABC59, Concentration 99.01 uM, Number of replicates 2.0, Standard deviation 0.34807548039861586 %",1.53%
same,inhibition,"PRVABC59, Concentration 198.0 uM, Number of replicates 2.0, Standard deviation 0.2225400542427734 %",-0.261%
COCCCN1CCC(NC(=O)C2CCN(c3ccc(C=O)cc3)CC2)CC1,inhibition,[2],28.2%
O=C(NCCc1ccccc1[N+](=O)[O-])c1cc(Cl)ccc1NS(=O)(=O)c1ccc(Oc2ccccc2Cl)cc1,inhibition,[1],27.9%
O=C(Nc1nc(-c2ccc(Cl)c(Cl)c2)cs1)c1cc(Cl)ccc1NS(=O)(=O)c1ccc(Oc2ccccc2Cl)cc1,inhibition,[1],26.5%
C[C@H](NC(=O)c1cc(Cl)ccc1NS(=O)(=O)c1ccc(Oc2ccccc2Cl)cc1)C12CC3CC(CC(C3)C1)C2,inhibition,[1],25.1%
CC(C)(C)[C@H](NC(=O)C1CCN(c2ccc(C=O)cc2)CC1)c1ccccc1,inhibition,[3],20.8%
O=Cc1ccc(N2CCC(C(=O)NCc3ccccc3OC(F)(F)F)CC2)cc1,inhibition,[3],23%
O=Cc1ccc(N2CCC(C(=O)NCc3noc(-c4cccs4)n3)CC2)cc1,inhibition,[3],22.6%
Cc1nn(Cc2cn(-c3ccccc3)nn2)cc1C1CCNCC1,inhibition,"PRVABC59, Concentration 49.5 uM, Number of replicates 2.0, Standard deviation 0.6133583009007375 %",-0.435%
same,inhibition,"PRVABC59, Concentration 99.01 uM, Number of replicates 2.0, Standard deviation 1.23031396538442 %",1.69%
same,inhibition,"PRVABC59, Concentration 198.0 uM, Number of replicates 2.0, Standard deviation 0.9515146698272816 %",6.21%
N#Cc1ccc(N2CCN(C(=O)C3CCN(c4ccc(C=O)cc4)CC3)CC2)nc1,inhibition,[2],23.5%
O=C(NCC(c1ccccc1)c1ccccc1)c1cc(Cl)ccc1NS(=O)(=O)c1ccc(Oc2ccccc2Cl)cc1,inhibition,[1],12.2%
O=C(NCc1noc(-c2cccs2)n1)c1cc(Cl)ccc1NS(=O)(=O)c1ccc(Oc2ccccc2Cl)cc1,inhibition,[1],51.9%
O=Cc1ccc(N2CCC(C(=O)NCc3ccc(Cl)c(C(F)(F)F)c3)CC2)cc1,inhibition,[3],11.8%
O=C(c1cc(Cl)ccc1NS(=O)(=O)c1ccc(Oc2ccccc2Cl)cc1)N1CC2C[C@H]3CC1C[C@H](C2)C3,inhibition,[1],26.1%
Cc1cnccc1NC(=O)c1coc2c1C(=O)NCCC2,inhibition,"PRVABC59, Concentration 49.5 uM, Number of replicates 2.0, Standard deviation 2.0082804728046963 %",0.123%
same,inhibition,"PRVABC59, Concentration 99.01 uM, Number of replicates 2.0, Standard deviation 1.1195703761085367 %",-0.899%
same,inhibition,"PRVABC59, Concentration 198.0 uM, Number of replicates 2.0, Standard deviation 0.46580663256761273 %",0.832%
Cc1cc(CO)c2cccc(Cc3cccc(C(=O)N4C[C@H](O)C[C@H]4C(=O)O)c3)c2n1,inhibition,"PRVABC59, Concentration 49.95 uM, Number of replicates 2.0, Standard deviation 0.9333357225401687 %",-4.13%
same,inhibition,"PRVABC59, Concentration 99.9 uM, Number of replicates 2.0, Standard deviation 0.5138590553450048 %",-0.701%
COCCCN(Cc1ccccc1)C(=O)c1cc(Cl)ccc1NS(=O)(=O)c1ccc(Oc2ccccc2Cl)cc1,inhibition,[1],22.5%
CCn1ccnc(NC[C@H](c2ccccc2)c2c[nH]c3ccccc23)c1=O,inhibition,"PRVABC59, Concentration 49.5 uM, Number of replicates 2.0, Standard deviation 3.1091602020067053 %",8.63%
same,inhibition,"PRVABC59, Concentration 99.01 uM, Number of replicates 2.0, Standard deviation 11.310073080419604 %",-1.99%
same,inhibition,"PRVABC59, Concentration 198.0 uM, Number of replicates 2.0, Standard deviation 0.369886516649852 %",-0.815%
O=C(OCc1ccccc1)N1C[C@@H](O)[C@H](c2c[nH]c3ccccc23)C1,inhibition,"PRVABC59, Concentration 49.5 uM, Number of replicates 2.0, Standard deviation 3.519576771911725 %",6.6%
same,inhibition,"PRVABC59, Concentration 99.01 uM, Number of replicates 2.0, Standard deviation 2.873595059358345 %",10.9%
same,inhibition,"PRVABC59, Concentration 198.0 uM, Number of replicates 2.0, Standard deviation 0.8741263124655184 %",12.2%
COc1cc(CS(=O)(=O)C2CCN(C(=O)OCc3ccccc3)CC2)nc(N2CCNCC2)n1,inhibition,"PRVABC59, Concentration 49.5 uM, Number of replicates 2.0, Standard deviation 1.138158616709895 %",3.25%
same,inhibition,"PRVABC59, Concentration 99.01 uM, Number of replicates 2.0, Standard deviation 1.809774885464571 %",6.9%
same,inhibition,"PRVABC59, Concentration 198.0 uM, Number of replicates 2.0, Standard deviation 0.7331386978756042 %",12%
